No constants are given. Whether binding was seen depends on the method and setting. Binding seen in cells or lysates may run through a third protein. Some entries that bind do so weakly or less than the wild type. Values belong to the substance of their own block, whether it stands above or below them.
How the values were obtained:
[1] = molecular target: FBXW7β, endogenous (human (endogenous in HCT 116)) (UniProt Q969H0); test: co-IP; endogenous proteins; HCT 116 lysate with anti-CSN6 or anti-FBXW7β antibody or control IgG overnight at 4 °C, then Protein A/G agarose beads 4 h at 4 °C, immunoblot
[2] = molecular target: Flag-FBXW7β (human) (UniProt Q969H0); test: co-IP; lysates of transfected HEK293T cells (20 μM MG132 for 6 h before harvest) with anti-Flag M2 agarose beads overnight at 4 °C, washed five times with lysis buffer, immunoblot; in some panels CHIR (4 μM, 12 h or 24 h) or co-expressed HA-GSK3β (S9A)
[3] = molecular target: FBXW7β, exogenous (Supplementary Fig. 3a, h, i, l) (human) (UniProt Q969H0); test: co-IP; exogenous CSN6 and FBXW7β (Supplementary Fig. 3a); tags, beads and cells not shown
[4] = molecular target: FBXW7β, in vitro translated (human) (UniProt Q969H0); test: co-IP; in vitro immunoprecipitation of proteins made with the TNT Quick Coupled Transcription/Translation system; pulled down with anti-Flag M2 beads or anti-Myc beads, immunoblot
[5] = molecular target: Myc-FASN (human) (UniProt P49327); test: co-IP; lysates of transfected HEK293T cells with anti-Myc magnetic beads overnight at 4 °C, immunoblot
[6] = molecular target: Flag-FASN (human) (UniProt P49327); test: co-IP; lysates of transfected HEK293T cells (20 μM MG132 for 6 h before harvest) with anti-Flag M2 agarose beads overnight at 4 °C, washed five times with lysis buffer, immunoblot; in some panels CHIR (4 μM, 12 h or 24 h) or co-expressed HA-GSK3β (S9A)

Sequences of proteins named here, by UniProt entry; tags and fusion partners are left off. A change or cut given only in a name is not applied to a line headed by its entry. A line that says so, or that is headed by a name, gives the form on record, which may keep a tag or linker.
UniProt Q969H0: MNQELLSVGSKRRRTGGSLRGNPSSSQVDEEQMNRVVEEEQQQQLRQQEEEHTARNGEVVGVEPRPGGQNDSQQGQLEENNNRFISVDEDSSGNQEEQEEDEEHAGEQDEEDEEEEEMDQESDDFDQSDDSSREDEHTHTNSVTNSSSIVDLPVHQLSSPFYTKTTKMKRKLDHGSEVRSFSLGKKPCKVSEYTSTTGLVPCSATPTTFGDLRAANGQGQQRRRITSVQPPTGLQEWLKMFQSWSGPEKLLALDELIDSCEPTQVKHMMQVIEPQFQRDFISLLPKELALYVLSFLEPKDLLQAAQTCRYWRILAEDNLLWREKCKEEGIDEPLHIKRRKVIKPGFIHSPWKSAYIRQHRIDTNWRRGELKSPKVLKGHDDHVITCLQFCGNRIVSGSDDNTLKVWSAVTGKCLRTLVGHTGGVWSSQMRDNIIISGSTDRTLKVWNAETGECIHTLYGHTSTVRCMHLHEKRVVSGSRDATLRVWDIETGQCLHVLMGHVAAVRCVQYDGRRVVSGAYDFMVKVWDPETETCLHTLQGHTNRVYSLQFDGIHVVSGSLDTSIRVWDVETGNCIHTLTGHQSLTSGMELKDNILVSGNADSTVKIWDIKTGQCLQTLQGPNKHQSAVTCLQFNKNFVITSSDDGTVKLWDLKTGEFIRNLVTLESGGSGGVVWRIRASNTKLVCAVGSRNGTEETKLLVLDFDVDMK
HA-FBXW7β (Q969H0-2, form named): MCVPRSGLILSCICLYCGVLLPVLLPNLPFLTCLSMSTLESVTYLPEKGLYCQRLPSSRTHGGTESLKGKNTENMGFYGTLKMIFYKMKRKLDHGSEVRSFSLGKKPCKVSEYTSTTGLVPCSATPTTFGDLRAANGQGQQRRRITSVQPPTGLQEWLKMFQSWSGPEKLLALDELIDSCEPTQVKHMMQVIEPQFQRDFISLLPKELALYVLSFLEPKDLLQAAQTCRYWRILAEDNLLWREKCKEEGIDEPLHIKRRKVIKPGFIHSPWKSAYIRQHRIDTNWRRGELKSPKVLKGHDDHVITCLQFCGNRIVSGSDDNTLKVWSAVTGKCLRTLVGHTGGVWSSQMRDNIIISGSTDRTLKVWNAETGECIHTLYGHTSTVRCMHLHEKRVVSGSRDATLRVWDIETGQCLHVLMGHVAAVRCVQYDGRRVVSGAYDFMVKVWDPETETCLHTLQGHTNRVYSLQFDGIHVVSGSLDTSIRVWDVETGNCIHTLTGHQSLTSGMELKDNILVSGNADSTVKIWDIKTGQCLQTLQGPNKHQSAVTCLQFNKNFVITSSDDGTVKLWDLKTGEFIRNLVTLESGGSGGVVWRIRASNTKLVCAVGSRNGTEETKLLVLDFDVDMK
Flag-FBXW7γ (Q969H0-4, form named): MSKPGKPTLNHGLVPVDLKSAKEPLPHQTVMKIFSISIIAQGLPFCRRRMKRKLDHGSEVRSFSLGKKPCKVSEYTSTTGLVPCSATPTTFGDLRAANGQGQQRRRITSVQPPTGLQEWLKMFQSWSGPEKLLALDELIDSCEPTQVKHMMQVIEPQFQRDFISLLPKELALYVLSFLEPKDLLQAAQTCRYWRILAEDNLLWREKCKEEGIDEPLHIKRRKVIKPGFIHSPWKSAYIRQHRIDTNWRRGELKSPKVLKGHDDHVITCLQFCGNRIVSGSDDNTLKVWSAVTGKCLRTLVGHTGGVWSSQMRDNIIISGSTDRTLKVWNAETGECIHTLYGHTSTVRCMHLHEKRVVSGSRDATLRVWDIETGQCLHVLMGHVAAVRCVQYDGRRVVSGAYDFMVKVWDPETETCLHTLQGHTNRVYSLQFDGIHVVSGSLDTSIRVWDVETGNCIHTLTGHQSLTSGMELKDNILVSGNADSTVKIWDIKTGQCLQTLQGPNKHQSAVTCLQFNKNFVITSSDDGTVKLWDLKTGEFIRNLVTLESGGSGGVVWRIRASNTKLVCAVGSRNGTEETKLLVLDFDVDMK
UniProt P49327: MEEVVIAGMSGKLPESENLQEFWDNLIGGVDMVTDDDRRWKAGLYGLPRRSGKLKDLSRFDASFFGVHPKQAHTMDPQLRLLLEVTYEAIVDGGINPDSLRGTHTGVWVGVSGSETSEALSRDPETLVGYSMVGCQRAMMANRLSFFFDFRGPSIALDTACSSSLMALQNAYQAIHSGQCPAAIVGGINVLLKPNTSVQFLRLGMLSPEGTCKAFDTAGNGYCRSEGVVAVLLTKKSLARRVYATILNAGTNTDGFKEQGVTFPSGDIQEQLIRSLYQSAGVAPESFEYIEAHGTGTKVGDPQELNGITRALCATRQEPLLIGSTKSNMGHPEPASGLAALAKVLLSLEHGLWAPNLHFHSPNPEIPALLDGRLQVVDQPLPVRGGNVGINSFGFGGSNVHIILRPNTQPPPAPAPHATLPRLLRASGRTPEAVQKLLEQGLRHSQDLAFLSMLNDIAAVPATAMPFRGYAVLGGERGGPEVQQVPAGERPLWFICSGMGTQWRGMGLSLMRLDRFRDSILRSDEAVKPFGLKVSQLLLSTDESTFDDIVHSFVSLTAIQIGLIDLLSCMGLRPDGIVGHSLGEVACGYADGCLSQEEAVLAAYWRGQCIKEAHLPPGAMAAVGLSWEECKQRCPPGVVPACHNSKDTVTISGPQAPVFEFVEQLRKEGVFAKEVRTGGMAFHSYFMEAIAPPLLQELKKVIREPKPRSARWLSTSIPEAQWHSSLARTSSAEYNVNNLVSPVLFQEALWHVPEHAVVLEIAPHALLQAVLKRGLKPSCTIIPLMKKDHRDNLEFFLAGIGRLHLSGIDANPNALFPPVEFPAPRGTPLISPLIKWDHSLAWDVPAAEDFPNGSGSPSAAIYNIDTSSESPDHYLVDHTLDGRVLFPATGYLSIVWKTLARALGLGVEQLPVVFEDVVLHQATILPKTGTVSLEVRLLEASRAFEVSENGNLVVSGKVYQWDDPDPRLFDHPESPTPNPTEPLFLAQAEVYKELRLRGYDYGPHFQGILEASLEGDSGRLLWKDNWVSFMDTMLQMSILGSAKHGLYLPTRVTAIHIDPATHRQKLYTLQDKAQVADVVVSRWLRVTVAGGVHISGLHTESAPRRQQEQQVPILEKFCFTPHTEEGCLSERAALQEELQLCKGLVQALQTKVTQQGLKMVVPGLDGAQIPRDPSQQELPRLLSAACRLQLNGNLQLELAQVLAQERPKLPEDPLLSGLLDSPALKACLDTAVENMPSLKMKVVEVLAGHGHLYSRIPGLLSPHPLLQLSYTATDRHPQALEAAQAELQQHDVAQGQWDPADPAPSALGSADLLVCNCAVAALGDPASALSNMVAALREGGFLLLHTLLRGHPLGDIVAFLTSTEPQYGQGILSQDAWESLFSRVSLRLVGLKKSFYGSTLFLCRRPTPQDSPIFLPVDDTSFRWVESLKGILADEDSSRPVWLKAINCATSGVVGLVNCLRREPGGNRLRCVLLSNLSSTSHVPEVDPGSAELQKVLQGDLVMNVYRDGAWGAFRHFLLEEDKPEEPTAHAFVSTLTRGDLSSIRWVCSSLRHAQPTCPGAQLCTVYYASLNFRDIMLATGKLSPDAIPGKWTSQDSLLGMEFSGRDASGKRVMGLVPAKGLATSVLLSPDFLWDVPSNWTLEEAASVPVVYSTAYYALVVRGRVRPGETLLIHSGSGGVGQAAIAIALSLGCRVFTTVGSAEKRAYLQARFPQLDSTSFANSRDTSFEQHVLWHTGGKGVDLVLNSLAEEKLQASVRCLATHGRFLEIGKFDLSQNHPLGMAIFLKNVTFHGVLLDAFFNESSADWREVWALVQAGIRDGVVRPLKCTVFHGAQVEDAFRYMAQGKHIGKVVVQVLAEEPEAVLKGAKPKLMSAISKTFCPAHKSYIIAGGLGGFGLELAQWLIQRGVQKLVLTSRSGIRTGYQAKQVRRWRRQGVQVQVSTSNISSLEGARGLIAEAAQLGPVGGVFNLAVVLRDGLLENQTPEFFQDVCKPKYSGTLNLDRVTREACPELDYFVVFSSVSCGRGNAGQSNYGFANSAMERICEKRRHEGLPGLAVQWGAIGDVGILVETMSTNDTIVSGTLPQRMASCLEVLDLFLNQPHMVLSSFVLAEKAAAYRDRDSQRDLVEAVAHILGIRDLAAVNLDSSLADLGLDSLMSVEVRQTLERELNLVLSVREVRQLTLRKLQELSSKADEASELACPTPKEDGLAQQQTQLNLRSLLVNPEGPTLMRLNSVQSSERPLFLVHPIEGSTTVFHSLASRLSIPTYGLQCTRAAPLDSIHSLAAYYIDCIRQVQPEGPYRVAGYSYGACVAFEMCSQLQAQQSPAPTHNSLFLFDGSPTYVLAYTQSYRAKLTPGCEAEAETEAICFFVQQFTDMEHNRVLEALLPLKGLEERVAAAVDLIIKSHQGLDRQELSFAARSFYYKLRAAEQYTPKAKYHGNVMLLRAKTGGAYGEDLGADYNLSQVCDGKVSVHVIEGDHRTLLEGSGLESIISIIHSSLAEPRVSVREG
UniProt Q7L5N1: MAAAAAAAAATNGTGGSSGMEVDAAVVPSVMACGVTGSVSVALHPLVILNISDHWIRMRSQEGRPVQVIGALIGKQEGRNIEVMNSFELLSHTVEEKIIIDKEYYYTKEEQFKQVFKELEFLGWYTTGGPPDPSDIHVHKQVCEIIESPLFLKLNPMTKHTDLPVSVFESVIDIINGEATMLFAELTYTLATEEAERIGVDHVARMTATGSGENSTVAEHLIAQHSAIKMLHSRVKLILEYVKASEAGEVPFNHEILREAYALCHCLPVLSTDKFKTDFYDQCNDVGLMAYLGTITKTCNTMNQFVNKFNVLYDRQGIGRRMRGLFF
UniProt P49841: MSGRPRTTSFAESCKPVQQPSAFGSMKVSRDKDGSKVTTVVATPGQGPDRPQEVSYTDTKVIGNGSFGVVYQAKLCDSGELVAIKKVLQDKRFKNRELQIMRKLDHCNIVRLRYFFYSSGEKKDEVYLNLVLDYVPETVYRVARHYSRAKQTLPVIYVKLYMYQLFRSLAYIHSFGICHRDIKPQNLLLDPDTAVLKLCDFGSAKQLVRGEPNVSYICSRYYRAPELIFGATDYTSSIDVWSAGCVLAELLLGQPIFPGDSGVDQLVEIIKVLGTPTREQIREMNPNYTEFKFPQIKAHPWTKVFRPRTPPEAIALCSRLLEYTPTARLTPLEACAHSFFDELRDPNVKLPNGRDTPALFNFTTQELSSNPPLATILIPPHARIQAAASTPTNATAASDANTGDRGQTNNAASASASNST

Substance: CSN6, endogenous (from UniProt Q7L5N1 1-327)
binding [1]: binds
binding [2]: binds

Substance: Flag-FBXW7α (from UniProt Q969H0-1 1-707)
binding [5]: no binding

Substance: Flag-FBXW7β (from UniProt Q969H0-2 1-627)
binding [5]: binds

Substance: Flag-FBXW7γ (from UniProt Q969H0-4 1-589)
binding [5]: no binding

Further lines, results first:

binding [3]: binds
Substance: CSN6, exogenous (Supplementary Fig. 3a) (from UniProt Q7L5N1 1-327)

binding [4]: binds
Substance: CSN6, in vitro translated (from UniProt Q7L5N1 1-327)

binding [6]: binds
Substance: HA-FBXW7β (from UniProt Q969H0-2 1-627)

binding [6]: binds
Substance: HA-GSK3β (from UniProt P49841 1-420) (enzyme)
